According to PubChem BioAssay (NCATS):
Inconclusive means that the source gave no clear call. Such entries were picked first, then a sample of the others. Where the call is inconclusive, the potency comes from a doubtful curve fit. Calls of active or inactive are those of the source. Calls come from the whole dose curve; as a rule, active = well fitted activation curve with a large enough effect in the signal ratio, with a control signal flat (not every such curve was filed as active); inconclusive = small, poorly fitted or top-dose-only effect, or effect the other way, or a change in a side signal; inactive = flat fitted curve, though single readings scatter; the % refers to the signal ratio.

Test: qHTS Assay for Identification of Small Molecule Agonists for Hypoxia Response Element Signaling Pathway (AID 914); for activation: top concentration of the series differs between compounds; % of control where 0% means no effect
Conditions: ME-180 (cervical carcinoma) HRE-bla reporter, beta-lactamase ratio, CoCl2, 17 h; activation: hits give high values
In short: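 HRE-bla ME-180 assay for agonist-like enhancement of an EC50 CoCl2 stimulus: 17 h at 37 degrees Celsius, CCF4 for 2.5 h, ratiometric 460/530 nm signal converted to %Activity and fitted to AC50.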
Potency is the fitted concentration of half-maximal effect; tags give direction and shape of the fitted curve or compound fluorescence and quenching.

Structure (SMILES) | activation | Potency
CC(C)COC(=O)CCNc1n[nH]c(=O)[nH]c1=O | inactive: -10.2% | –
CCC(C(=O)Nc1nccs1)(C(F)(F)F)C(F)(F)F | – | inconclusive: 10 µM [inhibitor, partial curve]
Oc1ccccc1-c1nc(NCCN2CCOCC2)c2ccccc2n1 | – | inconclusive: 7.94 µM [inhibitor, partial curve, poor fit]
CC(O)Cn1ccccc1=N (stereo not given) | inconclusive: -42.9% | –
COC(=O)NC(Nc1sc2c(c1C(N)=O)CCCC2)(C(=O)OC)C(F)(F)F (stereo not given) | inconclusive: -32.6% | –
C#CCCCO/N=C1/C[C@@H](O)[C@@H](O)[C@@H]2[C@@H]3C(=O)N(c4cccc(Oc5ccccc5)c4)C(=O)[C@H]3CC[C@H]12 | inconclusive: -8.37% | –
O=C(Nc1ccccc1)c1cc(N2CCOCC2)nc2ccccc12 | – | inconclusive: 6.31 µM [inhibitor, partial curve]
Cc1nc2sc3c(c2c(=O)[nH]1)CCCC3 | – | inconclusive: 0.631 µM [inhibitor, single point]
CO[C@H]1C[C@@H]2CC[C@@H](C)[C@@](O)(O2)C(=O)C(=O)N2CCCC[C@H]2C(=O)O[C@H]([C@H](C)C[C@@H]2CC[C@@H](O)[C@H](OC)C2)CC(=O)[C@H](C)C=C(C)[C@@H](O)[C@@H](OC)C(=O)[C@H](C)C[C@H](C)C=CC=CC=C1C | – | inconclusive: 0.0006 µM [inhibitor]
COc1ncc2nc(-c3cn(C)c4ccccc34)c(=O)n(CCC#N)c2n1 | inconclusive: -30.3% | –
